Data as given in PMC4336329 (PLoS ONE, 2015).
The whole screen tested about 310,000 compounds, of which about 2,200 (0.71%) showed an effect of 50% or more. The effect is printed as a negative number. This is one part of the list.

molecular target: human ether-à-go-go-related gene (hERG) potassium channel (human, UniProt Q12809); test: primary screen, population patch clamp on CHO cells stably expressing hERG
Sequence (Q12809 whole entry, looked up): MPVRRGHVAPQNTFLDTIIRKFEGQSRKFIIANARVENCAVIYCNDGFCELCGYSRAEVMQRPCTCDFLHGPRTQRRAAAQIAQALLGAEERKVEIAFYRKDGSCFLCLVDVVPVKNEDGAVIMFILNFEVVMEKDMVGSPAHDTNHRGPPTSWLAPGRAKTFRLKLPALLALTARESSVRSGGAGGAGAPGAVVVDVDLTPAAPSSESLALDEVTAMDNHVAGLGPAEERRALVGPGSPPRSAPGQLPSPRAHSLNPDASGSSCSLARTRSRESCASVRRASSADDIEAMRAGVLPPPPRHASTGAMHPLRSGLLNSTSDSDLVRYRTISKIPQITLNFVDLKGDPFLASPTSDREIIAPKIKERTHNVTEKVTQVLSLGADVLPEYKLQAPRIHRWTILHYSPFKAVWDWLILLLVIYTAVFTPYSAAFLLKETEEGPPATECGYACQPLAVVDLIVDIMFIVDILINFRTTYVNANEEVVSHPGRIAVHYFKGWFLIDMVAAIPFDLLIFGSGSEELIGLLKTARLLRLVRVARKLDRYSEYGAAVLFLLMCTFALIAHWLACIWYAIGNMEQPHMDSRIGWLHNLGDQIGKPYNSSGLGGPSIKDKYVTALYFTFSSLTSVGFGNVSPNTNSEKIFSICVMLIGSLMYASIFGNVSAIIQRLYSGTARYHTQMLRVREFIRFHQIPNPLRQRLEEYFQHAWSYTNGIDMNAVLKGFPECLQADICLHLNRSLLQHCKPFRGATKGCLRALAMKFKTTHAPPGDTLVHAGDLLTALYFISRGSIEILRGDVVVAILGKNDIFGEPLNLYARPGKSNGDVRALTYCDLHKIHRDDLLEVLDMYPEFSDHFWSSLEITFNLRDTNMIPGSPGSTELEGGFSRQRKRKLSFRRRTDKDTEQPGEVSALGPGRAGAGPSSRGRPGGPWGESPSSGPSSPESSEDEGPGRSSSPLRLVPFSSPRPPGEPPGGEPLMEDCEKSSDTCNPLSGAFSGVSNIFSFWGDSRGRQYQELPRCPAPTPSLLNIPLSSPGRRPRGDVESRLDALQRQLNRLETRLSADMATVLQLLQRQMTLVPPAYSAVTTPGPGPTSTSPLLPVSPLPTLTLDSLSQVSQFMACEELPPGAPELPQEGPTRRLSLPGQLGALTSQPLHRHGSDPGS

| Compound | hERG current change (%, negative = inhibition) at 1uM [%] |
| --- | --- |
| CC(C)OC(=O)c1c(N)n(Cc2ccco2)c2nc3ccccc3nc12 | 0.554 |
| CCOC(=O)N1CCC(NC(=O)Cn2cc3c(n2)CCCC3)CC1 | 4.94 |
| CC(=O)Nc1sc(C)c(C)c1C(=O)OC(C)C | 14.6 |
| S=C(NC1CCCCCC1)NC1CCCC1 | 5.91 |
| COc1ccc(F)cc1S(=O)(=O)N1CCCCC1 | -0.707 |
| O=C(NCCS(=O)(=O)NCc1ccccc1Cl)c1ccc2c(c1)OCO2 | 8.74 |
| CCOC(=O)N1CCN(C(=S)NCCOC)CC1 | 15.6 |
| COc1ccc(-c2nc(-c3ccccn3)nc(N3CCN(C)CC3)c2C#N)cc1 | 7.89 |
| O=C(NCC(c1ccco1)N1CCc2ccccc2C1)c1cccc(F)c1 (centres unmarked) | -23.9 |
| COc1cc(C2C(C(=O)OCCC#N)=C(C)NC3=C2S(=O)(=O)c2ccccc23)cc(OC)c1OC (centres unmarked) | -2.47 |
| Cc1cc(-c2ccccc2)nc2cc(C(=O)NCCCn3ccnc3)nn12 | 1.58 |
| COCCNC(=S)N/N=C(\C)c1cccc([N+](=O)[O-])c1 | -12.2 |
| O=C(CCCC(=O)N(CC(=O)NC1CCCC1)c1ccc(F)c(Cl)c1)Nc1ccccn1 | 7.4 |
| Cc1ccc(S(=O)(=O)c2cccc(S(=O)(=O)N3CCOCC3)c2)cc1S(=O)(=O)N1CCOCC1 | 19.3 |
| COc1ccc(CCNCC(=O)Nc2ccc(OC(F)(F)F)cc2)cc1OC.Cl | -4.82 |
| COc1cc(-c2nc3ccc4ccccc4c3c3c2CCC3)ccc1O | 10.4 |
| COc1ccccc1CNS(=O)(=O)c1c(C)nc2sccn2c1=O | 12.8 |
| O=C(COc1cccc(Cl)c1Cl)Nc1ccc2c(c1)CCC2 | 13.2 |
| CC(=O)Oc1ccc(C(=O)Nc2cc(C)on2)cc1 | 13.5 |
| CCN1CCN(S(=O)(=O)c2ccc(S(=O)(=O)NC3CC3)cc2)CC1 | 4.64 |
| Cc1ccc(S(=O)(=O)N[C@@H](Cc2ccccc2)C(=O)N2CCC(C(=O)N[C@H](C(=O)O)C(C)O)CC2)cc1 (some centres unmarked) | 7.7 |
| Cc1cc2oc(=O)cc(CN3CCCCC3)c2cc1O | 15.1 |
| COc1ccc(CCN(C)C(=O)CNC(=O)c2ccc3c(c2)OCO3)cc1OC | 14.6 |

| Compound | hERG current change (%, negative = inhibition) at 1uM [%] |
| --- | --- |
| O=C(N/N=C/c1ccccc1O)c1cccc2ccccc12 | 17.3 |
| O=C(CSc1cccc(C(F)(F)F)c1)Nc1ccc(Cl)cc1Cl | 3.96 |
| COc1cccc(C2NC(=O)NC(C)=C2C(=O)OCC2CCCCC2)c1 (centres unmarked) | 13.4 |
| O=C1CCc2cc(S(=O)(=O)Nc3ccc(C(F)(F)F)cc3)cc3c2N1CC3 | 4.87 |
| COc1ccccc1NC(=O)c1ccc(NC(=O)c2ccco2)cc1 | 1.05 |
| COc1ccc2nc(NC(=O)CC3Oc4ccccc4NC3=O)sc2c1 (centres unmarked) | 13.1 |
| CCc1ccc(C2C(C#N)=C(N)SC(N)=C2C#N)s1 | 19.2 |
| Cc1cc(C)cc(NC(=O)C(OC(=O)c2cc[n+]([O-])cc2)c2ccccc2)c1 (centres unmarked) | -11.1 |
| Cn1c(=O)cc(OCC(=O)N2CCCc3ccccc32)c2ccccc21 | 14 |
| CCN(C(=O)CSc1nnc(C2CC2)n1-c1ccccc1)C1CCS(=O)(=O)C1 (centres unmarked) | -1.64 |
| Cc1nc(N2CCOCC2)nc(OCCN(C)C)c1[N+](=O)[O-] | 7.82 |
| COCCNC(=O)c1c(CS(=O)(=O)c2ccccc2)noc1C(=O)NCc1ccccc1 | 10.6 |
| COc1ccccc1OCCCC(=O)Nc1ccc([N+](=O)[O-])cc1Br | 7.57 |
| Cn1c(=O)c2c(nc(Br)n2CCSc2nc3ccccc3o2)n(C)c1=O | -1.34 |
| N#Cc1cccc(C(=O)OCC(=O)NC(=O)NC2CCCCC2)c1 | 7.94 |
| CC1(C)C2CC=C(/C=N/NC(=O)c3ccccc3O)C1C2 (centres unmarked) | 10.2 |
| NC(=O)CC(NC(=O)Cc1cccc2ccccc12)c1ccc(N2CCC(N3CCCCC3)CC2)c([N+](=O)[O-])c1 (centres unmarked) | 7.79 |
| CCCCc1c(O)c2cccc3c2n(c1=O)CCC3 | 12.6 |
| Cc1nnsc1NC(=O)OCC(C)(C)C | 9.64 |
| COc1ccccc1C(=O)Nc1ccc(NC(=O)C2CCCCC2)nc1 | 12 |
| CC(C)(C)c1nnc2sc(SCC(=O)c3ccc(Cl)cc3)nn2c1=O | 11.1 |
| O=C1c2ccccc2C(=O)N1CCOc1ccccc1 | 18.1 |
| COc1ccc(N(Cc2cc3cc(OC)ccc3[nH]c2=O)C(=O)C2CCCO2)cc1 (centres unmarked) | -1.05 |

| Compound | hERG current change (%, negative = inhibition) at 1uM [%] |
| --- | --- |
| CCN1C(=O)c2n[nH]c(C(=O)OC)c2C1=O | 15.9 |
| O=C(c1cc(-c2ccncc2)nc2ccccc12)N1CCN(c2ccc(N3CCOCC3)nn2)CC1 | -22.9 |
| Cc1c(CNCCc2ccccc2)c(C(=O)O)c(C)n1-c1ccccc1 | 13.3 |
| CCS(=O)(=O)NCCc1cc2c(OC)ccc(OC)c2[nH]c1=O | 18 |
| O=C(NC1CCCCC1)c1cccc(OCc2ccccc2)c1 | 10.9 |
| CC1CC(C)CN(CCCNC(=O)CCNC(=O)Cn2ccc3ccccc3c2=O)C1 (centres unmarked) | 3.99 |
| CC1(C)C2CCC1(C)C(OC(=O)C[n+]1ccccc1N)C2.[Br-] (centres unmarked) | -6.78 |
| CCC(C)Nc1nc(OC)nc(N(C)C#N)n1 (centres unmarked) | 14.1 |
| CCN(CCCNC(=O)CSc1cc(=O)n(C)c2cc(Cl)ccc12)Cc1ccccc1 | -10.8 |
| Cc1ccccc1NC(=O)c1c(Cl)nc(C)c(Cl)c1C | 3.38 |
| Cc1ccc(C)c(NC(=S)N2CCN(S(C)(=O)=O)CC2)c1 | 14.6 |
| CCCCn1c(SCC(=O)NCc2ccco2)nc2c1c(=O)n(C)c(=O)n2C | 7.48 |
| CC(C)(C)NC(=O)Nc1cccc(Cl)c1Cl | 0.426 |
| Cc1ccc(-n2ncc3c2CC(C)(C)CC3NC(=O)CCN2CCCO2)cc1 (centres unmarked) | -12.1 |
| Cc1ccc(-n2c(-c3nn(C)c(C)c3Cl)n[nH]c2=S)cc1 | 13 |
| CN(C)CCN(C(=O)c1ccc2c(c1)CCCC2)c1nc2cc3c(cc2s1)OCCO3.Cl | 11.2 |
| CCOC(=O)c1sc(NC(=S)NC(=O)c2ccco2)nc1C | 9.28 |
| Cc1onc(-c2ccccc2)c1C(=O)Nc1nc(-c2cc(F)ccc2F)cs1 | 20.9 |
| CCOc1ccc(C2C(C(=O)c3ccco3)=C(O)C(=O)N2Cc2cccnc2)cc1OC (centres unmarked) | -3.53 |
| CCOC(=O)c1c(NCCN(C)C)c2ccccc2[nH]c1=O | 8.62 |
| O=C(Nc1ccc(Cl)cc1F)C1CCN(S(=O)(=O)c2cccnc2)CC1 | -6.11 |
| CCc1ccc(C(=O)CC2(O)C(=O)N(CN3CCOCC3)c3ccccc32)cc1 (centres unmarked) | 6.06 |
| CCOC(=O)c1cc(CC)sc1NC(=O)CC1SC(N)=NC1=O (centres unmarked) | 4.26 |

| Compound | hERG current change (%, negative = inhibition) at 1uM [%] |
| --- | --- |
| O=C(NC(Cc1c[nH]c2ccccc12)c1nnc2n1CCCCC2)c1ccc(Cl)cc1 (centres unmarked) | 1.99 |
| CCOC(=O)C1=C(C)NC2=C(C(=O)c3ccccc32)C1c1cccnc1 (centres unmarked) | -13.1 |
| O=C(NCCC1=CCCCC1)C(=O)NCC(c1ccco1)N1CCN(c2ccccc2)CC1 (centres unmarked) | 2.89 |
| N#CC(C#N)=C(C#N)c1ccc(Nc2ccccc2)cc1 | 7.22 |
| CC(=O)c1ccc(S(=O)(=O)N(C)CCCC(=O)N2CCN(c3ncccn3)CC2)cc1 | -0.663 |
| CCOC(=O)c1[nH]nc(-c2cc(CC)c(O)cc2O)c1-c1cscn1 | 14.6 |
| Cc1ccc(SCC(=O)Nc2nnc(C(C)(C)C)s2)cc1 | 15 |
| Cc1ccc(S(=O)(=O)N2CCC(C(=O)NCCC3=CCCCC3)CC2)cc1C | 4.71 |
| CC(C)c1nnc(NC(=O)CCC(=O)NCc2ccco2)s1 | 6.79 |
| COc1ccc(C(CNc2ncnc3sccc23)N(C)C)cc1OC (centres unmarked) | 8.55 |
| Cc1ccc(CNC(=O)CCn2cc(-c3ccc(C)cc3)nc2CCN)cc1 | 2.59 |
| Fc1ccc2nc(N3CCCCC3)sc2c1 | 14.6 |
| C=CCn1c(SCC(=O)NC23CC4CC(CC(C4)C2)C3)nc(O)cc1=O | -20.5 |
| CC(C)n1c(O)c(/C=C2\C=Nc3ccccc32)sc1=Nc1ccccc1 | 15.4 |
| Oc1c(C(c2cccs2)N2CCN(c3ccccc3)CC2)sc2ncnn12 (centres unmarked) | 1.67 |
| Cc1ccc(N(C)C(=O)N2CCN(S(=O)(=O)c3ccc(C)c(C)c3)CC2)cc1 | 1.63 |
| COc1ccc(-n2c(COc3cccc(C)c3)nnc2SCC(=O)O)cc1 | 10.7 |
| CCOc1ccc(C(=O)c2cc([N+](=O)[O-])ccc2Cl)cc1 | 8.81 |
| COc1ccccc1OCCOc1ccc(/C=C2/C(=N)N3OC(C)=CC3=NC2=O)cc1OC | -5.87 |
| CCc1nnc(NC(=O)c2ccc(COc3ccccc3Cl)o2)s1 | 23.7 |
